Experimental data taken from publication PMC4336329 (PLoS ONE, 2015).
Among all 310,000 compounds or so, about 14,000 (4.5%) showed an effect of 50% or more. Effects have a minus sign here. The list shows a part of the results.

What follows are molecules tested against human ether-à-go-go-related gene (hERG) potassium channel (human, UniProt Q12809) (assay: primary screen, population patch clamp on CHO cells stably expressing hERG).
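Also: peak tail current of the secondary pulse compared with the same well before compound.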

Sequence of human ether-à-go-go-related gene (hERG) potassium channel (Q12809 whole entry, looked up): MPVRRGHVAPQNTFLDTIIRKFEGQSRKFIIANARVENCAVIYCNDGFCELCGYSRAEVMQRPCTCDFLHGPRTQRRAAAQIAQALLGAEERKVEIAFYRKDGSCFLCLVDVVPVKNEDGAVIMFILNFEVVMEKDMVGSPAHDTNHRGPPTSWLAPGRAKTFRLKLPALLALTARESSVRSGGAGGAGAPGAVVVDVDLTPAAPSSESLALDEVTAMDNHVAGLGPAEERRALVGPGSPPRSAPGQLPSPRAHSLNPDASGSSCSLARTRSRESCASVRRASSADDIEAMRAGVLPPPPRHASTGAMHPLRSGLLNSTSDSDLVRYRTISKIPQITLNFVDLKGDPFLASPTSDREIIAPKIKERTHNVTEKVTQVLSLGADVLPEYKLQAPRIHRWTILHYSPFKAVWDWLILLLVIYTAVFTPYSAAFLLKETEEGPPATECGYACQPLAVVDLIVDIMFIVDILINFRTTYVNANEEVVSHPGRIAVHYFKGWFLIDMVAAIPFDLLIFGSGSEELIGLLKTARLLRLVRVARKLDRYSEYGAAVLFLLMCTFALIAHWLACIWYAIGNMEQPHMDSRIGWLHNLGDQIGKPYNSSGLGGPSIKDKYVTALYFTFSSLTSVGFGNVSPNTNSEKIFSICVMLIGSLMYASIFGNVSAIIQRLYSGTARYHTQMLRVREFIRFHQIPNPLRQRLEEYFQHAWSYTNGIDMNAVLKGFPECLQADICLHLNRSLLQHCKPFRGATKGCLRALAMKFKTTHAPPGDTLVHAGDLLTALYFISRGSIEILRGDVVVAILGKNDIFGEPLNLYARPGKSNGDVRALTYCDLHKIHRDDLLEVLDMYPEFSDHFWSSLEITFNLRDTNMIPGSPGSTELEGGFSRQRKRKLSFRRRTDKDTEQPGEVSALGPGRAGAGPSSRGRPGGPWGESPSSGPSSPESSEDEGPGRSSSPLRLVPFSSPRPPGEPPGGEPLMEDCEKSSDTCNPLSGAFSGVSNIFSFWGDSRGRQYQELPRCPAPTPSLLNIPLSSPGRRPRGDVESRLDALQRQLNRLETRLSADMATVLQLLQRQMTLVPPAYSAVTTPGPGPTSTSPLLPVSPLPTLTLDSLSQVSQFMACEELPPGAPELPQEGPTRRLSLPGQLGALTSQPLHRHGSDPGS

Row | SMILES | hERG current change (%, negative = inhibition) at 10uM [%]
1 | Cc1ccc(OCC(=O)N(Cc2cccs2)C2CCS(=O)(=O)C2)cc1C (stereo not shown) | 4.21
2 | Cc1sc2nc(SCC(=O)NCc3ccco3)n(-c3ccccc3)c(=O)c2c1C | 8.63
3 | O=C(NCCNC(=O)c1cccnc1)c1ccc(Br)cc1 | 14.6
4 | CCOC(=O)c1c(C)[nH]c(C)c1S(=O)(=O)NCCc1cccs1 | -12.7
5 | O=C(NC1CCCCC1)N1CCCC(CNS(=O)(=O)Cc2ccccc2)C1 (stereo not shown) | -13.7
6 | Cc1cc(C)c(NC(=O)CSc2ccc(-c3cccnc3)nn2)c(C)c1 | 9.79
7 | COCCNC(=O)c1cccc(OC2CCN(Cc3ccccc3OCCO)CC2)c1 | -29.3
8 | O=C(c1cnn2c(C(F)F)cc(-c3ccccc3)nc12)N1CCCc2ccccc21 | -3.45
9 | COC(=O)N/N=C/c1ccc(-c2ccccc2Cl)o1 | -8.41
10 | COc1cccc(N2CC(O)=C(c3ccccc3)C2=N)c1 | 7.71
11 | CN(C)C(=O)NC(O)C(Cl)(Cl)Cl (stereo not shown) | 9.95
12 | CCCCNC(=O)c1ccc(-n2c(=S)[nH]c3ccccc3c2=O)cc1 | 20.6
13 | CCN(CC(=O)NCc1ccc(F)cc1)CC(=O)Nc1ccc(S(=O)(=O)N2CCCC2)cc1 | -22.8
14 | Nc1c(C(=O)CCC(=O)O)oc2ccc(Cl)cc12 | -9.4
15 | COc1ccc(NS(=O)(=O)Cc2ccccc2Cl)cn1 | 2.61
16 | O=C(O)c1cccc(CSc2ncccn2)c1 | -2.38
17 | COc1ccc(CCN(C)CCCC(C#N)(c2cc(OC)c(OC)c(OC)c2)C(C)C)cc1OC.Cl (stereo not shown) | -64.1
18 | CCOC(=O)C1CC(c2ccc(Cl)cc2)=NNC1=O (stereo not shown) | -23.1
19 | COc1ccc(CN(C)C(=O)c2ccccc2OCc2c(C)noc2C)cc1OC | -8.98
20 | O=C(c1ccccc1[N+](=O)[O-])N1CCCC(C(=O)N2CCCCCC2)C1 (stereo not shown) | 10.6
21 | CCN(CC)S(=O)(=O)c1ccc(N2CCCC2)c(NS(=O)(=O)c2ccc(OC)cc2)c1 | -13.7
22 | CC(NS(=O)(=O)c1cccc(Cl)c1)C(=O)Nc1ccc(-c2nc3ccccc3s2)cc1 (stereo not shown) | 3.98
23 | CCn1nc(NC(=O)c2ccco2)c2cc3ccc(C)cc3nc21 | 7.22
24 | O=C(NC(=O)N1CCCCCC1)c1ccccc1 | 17.6
25 | COc1cc(NC(=O)C2CCCN2S(=O)(=O)c2cccc3cccnc23)cc(OC)c1OC (stereo not shown) | 16.6
26 | Cc1ccc(SCC2CNc3nc4ccccc4c(=O)n32)c(C)c1 (stereo not shown) | -37.7
27 | CC(C)Cn1c(N)c(C(=O)CSc2cc(Cl)ccc2Cl)c(=O)n(C)c1=O | -6.78
28 | CCCCn1c(N)c(N(CCOC)C(=O)c2cc(-c3ccc(OC)c(OC)c3)nc3ccccc23)c(=O)[nH]c1=O | 11

Row | SMILES | hERG current change (%, negative = inhibition) at 10uM [%]
29 | CCN(CC)C(=O)c1[nH]cnc1C(=O)Nc1cccc(C)c1 | 8.42
30 | NS(=O)(=O)c1ccc(NC(=O)c2c(F)cccc2Cl)cc1 | 14
31 | COC(=O)[C@H](Cc1ccccc1)NC(=O)NCc1cccs1 | 5.07
32 | COc1ccc(N2C(=O)C3CCCN3C2c2ccc(Cl)cc2)cc1 (stereo not shown) | 2.16
33 | CCCCc1ccc(C2C(C#N)=C(N)SC(N)=C2C#N)s1 | 21.4
34 | Cc1ccc2oc(Nc3nc(C)cc(C)n3)nc2c1 | -3.47
35 | CC(C)C[C@H](NC(=O)C1CCN(C(=O)[C@H](Cc2ccccc2)NC(=O)OC(C)(C)C)CC1)C(=O)O | 20.5
36 | COC(=O)C1CCN(C(=O)N2CCOCC2)CC1 | 5.68
37 | COc1ccc(C(=O)Cn2nnc(-c3ccc(N4CCOCC4)cc3)n2)cc1OC | -8.3
38 | COC(=O)c1ccc(C23CC4(C2)[C@H](CN(Cc2cccnc2)[C@@H]4c2ccccc2)C3c2ccc(C(F)(F)F)cc2)cc1 (stereo partly shown) | 16.8
39 | COc1ccc(N2CC(C(=O)N[C@@H](CC(C)C)C(=O)NC3CCCC3)CC2=O)cc1 (stereo partly shown) | 18.4
40 | Cc1cccc(-c2noc(-c3cc4ccccc4oc3=O)n2)c1 | -1.31
41 | CCc1ccc2c(c1)cc(CN(C(=S)Nc1ccccc1Cl)C1CC1)c1nnnn12 | -41.4
42 | CC1CCN(c2nc3ccccc3n2CC(=O)c2ccccc2)CC1 | 56
43 | CCOC(=O)N1CCN(C(=O)c2ccc3nc4cc(Cl)ccc4c(=O)n3c2)CC1 | -41.6
44 | CC(NC(=O)C12CC3CC(CC(O)(C3)C1)C2)c1ccc(Cl)cc1Cl (stereo not shown) | 10.8
45 | CCOC(=O)c1ccc(N=Cc2c(O)c3ccccc3oc2=O)cc1 | 16.5
46 | CC(C)(C)SC(=O)CC1NS(=O)(=O)OC2CCCCC12 (stereo not shown) | 3.56
47 | O=C(Cc1ccc(S(=O)(=O)N2CCCC2)s1)Nc1nc2c(s1)CCCC2 | 5.06
48 | COC(=O)c1ccc(CSc2nnc(C)n2N)o1 | 25.3
49 | COC(=O)c1nc(NC(=O)c2ccc(Br)cc2)n[nH]1 | -7.62
50 | CC(C)(C)C1(O)CC(C(F)(F)F)=NN1C(=O)Cc1ccc([N+](=O)[O-])cc1 (stereo not shown) | -8.24
51 | Nc1nc(SCC(=O)N2CCCC2)[nH]c(=O)c1NC(=O)c1ccco1 | -9.62
52 | COc1ccc2oc(C(=O)Nc3ccccn3)c(C)c2c1 | 11.6
53 | O=[N+]([O-])c1cccc(NC(=S)N2CCN(c3ccccn3)CC2)c1 | 0.236
54 | Cc1ccc(C)c(NS(=O)(=O)c2ccc(NC(=O)c3ccco3)cc2)c1 | 4.11
55 | COc1cc(NC(=O)Cn2c(=O)n(-c3cccc(C)c3)c(=O)c3c(C)c(C)sc32)cc(OC)c1 | -8.37
